From article PMC4336329 (PLoS ONE, 2015)
Screen size: about 310,000 compounds; about 14,000 (4.5%) showed an effect of 50% or more. Effects have a minus sign here. The list shows a part of the results.

These compounds were tested against human ether-à-go-go-related gene (hERG) potassium channel (human, UniProt Q12809) (assay: primary screen, population patch clamp on CHO cells stably expressing hERG).
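Note: peak tail current of the secondary pulse compared with the same well before compound.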

Sequence of human ether-à-go-go-related gene (hERG) potassium channel (Q12809 whole entry, looked up): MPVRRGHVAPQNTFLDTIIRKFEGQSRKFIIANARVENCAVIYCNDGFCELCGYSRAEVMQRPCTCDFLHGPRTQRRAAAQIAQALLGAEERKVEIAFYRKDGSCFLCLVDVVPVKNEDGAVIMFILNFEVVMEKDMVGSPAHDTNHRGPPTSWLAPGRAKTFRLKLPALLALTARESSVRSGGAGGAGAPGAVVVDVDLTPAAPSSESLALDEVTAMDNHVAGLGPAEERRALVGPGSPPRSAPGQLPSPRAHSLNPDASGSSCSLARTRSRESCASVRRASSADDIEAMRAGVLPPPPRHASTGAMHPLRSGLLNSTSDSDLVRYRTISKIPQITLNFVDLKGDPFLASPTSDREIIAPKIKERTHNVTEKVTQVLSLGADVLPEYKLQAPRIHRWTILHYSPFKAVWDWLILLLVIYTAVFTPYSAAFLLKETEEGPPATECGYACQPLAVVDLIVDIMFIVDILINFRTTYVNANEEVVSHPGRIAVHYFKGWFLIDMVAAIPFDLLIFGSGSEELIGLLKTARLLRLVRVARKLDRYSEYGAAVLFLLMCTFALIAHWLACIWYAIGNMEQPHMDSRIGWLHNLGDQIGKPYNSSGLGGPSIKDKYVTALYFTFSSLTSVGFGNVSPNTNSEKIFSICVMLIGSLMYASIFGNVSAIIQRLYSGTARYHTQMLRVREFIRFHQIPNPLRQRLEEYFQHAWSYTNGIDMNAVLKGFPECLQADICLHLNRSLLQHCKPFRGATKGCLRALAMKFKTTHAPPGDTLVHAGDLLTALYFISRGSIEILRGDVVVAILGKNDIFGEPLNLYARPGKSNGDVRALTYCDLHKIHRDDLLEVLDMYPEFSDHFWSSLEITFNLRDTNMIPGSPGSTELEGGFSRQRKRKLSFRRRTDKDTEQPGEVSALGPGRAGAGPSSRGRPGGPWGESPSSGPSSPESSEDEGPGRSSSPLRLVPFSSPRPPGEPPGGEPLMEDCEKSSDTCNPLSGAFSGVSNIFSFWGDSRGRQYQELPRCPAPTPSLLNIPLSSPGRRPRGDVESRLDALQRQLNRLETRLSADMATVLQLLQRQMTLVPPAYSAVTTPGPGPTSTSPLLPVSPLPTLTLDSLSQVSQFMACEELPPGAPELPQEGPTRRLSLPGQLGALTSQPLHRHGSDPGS

Row | Structure (SMILES) | hERG current change (%, negative = inhibition) at 10uM [%]
1 | COC(CNc1ccc([N+](=O)[O-])c(NCC(OC)OC)c1C#N)OC | 5.62
2 | Cc1cc(NS(=O)(=O)c2ccc(NC(=O)CSc3nc4sc(C(=O)O)c(C)c4c(=O)[nH]3)cc2)no1 | 15.8
3 | Cc1cccc(OC(C)C(=O)N2CCCN(C)CC2)c1C (stereo not drawn) | 1.75
4 | CCCNC(=O)c1ccc(COc2ccc(Cl)cc2)o1 | -17.4
5 | COc1ccccc1NS(=O)(=O)c1cc(C(=O)NCc2ccco2)ccc1C | -26.1
6 | Cc1c(C(=O)N2CCN(S(=O)(=O)c3cc(F)ccc3F)CC2)oc2ccccc12 | -3.34
7 | Cc1ccc(SCC(=O)N(C)CC(=O)Nc2cccc(F)c2)cc1 | -24.8
8 | Cc1ccc(Nc2nc(N)nc(CSC(=S)N3CCN(c4ccccc4)CC3)n2)cc1 | 8.32
9 | Cc1c(/C=N/NC(=O)c2ccccc2O)c2ccccn2c1C(=O)c1ccc(F)cc1 | -4.91
10 | O=C(COC(=O)CCc1nc2ccccc2n1-c1ccccc1)Nc1cccc(Cl)c1 | 2.63
11 | Cc1noc(C)c1C(=O)NCc1cccs1 | 8.73
12 | O=C(CC1Sc2ccccc2NC1=O)c1ccc(Br)cc1 (stereo not drawn) | 22.4
13 | CCCCCCCCS(=O)C1CCS(=O)(=O)C1 (stereo not drawn) | 4.04
14 | Cc1ccc(CCSc2ccc(C(C)C)cc2)cn1 | -6.79
15 | CN(CC(=O)Nc1ccc(F)cc1)C(=O)COC(=O)c1ccc(=O)n(Cc2ccccc2)n1 | -25
16 | O=C(O)c1ccc(NS(=O)(=O)c2ccc3c(c2)C(=O)c2cc(S(=O)(=O)Nc4ccc(C(=O)O)cc4)ccc2-3)cc1 | 6.65
17 | Nc1[nH]c(=O)[nH]c(=O)c1N=Nc1ccccc1Cl | 19.6
18 | C(CNC1C2CC3CC(C2)CC1C3)CN1CCOCC1.Cl (stereo not drawn) | 4.95
19 | Cc1cc(C(=O)NCC(=O)OCC(=O)N(C(C)C)C(C)C)ccc1[N+](=O)[O-] | 10.6
20 | Cc1[nH]c(=O)[nH]c(=O)c1S(=O)(=O)Nc1ccc(F)c(Cl)c1 | 22
21 | CC(=O)Nc1cc(C(=O)NCc2ccco2)ccc1Sc1ccc(F)cc1 | -40.8
22 | Cc1cc(N2C(=O)C(O)=C(C(=O)c3cc4ccccc4o3)C2c2ccc(OC(C)C)cc2)no1 (stereo not drawn) | 0.512

Row | Structure (SMILES) | hERG current change (%, negative = inhibition) at 10uM [%]
23 | CCc1ccc(C2CC(=O)N(c3cccc(F)c3)C3=C2C(=O)OC3)cc1 (stereo not drawn) | -43
24 | CNC(=O)C(=O)N/N=C/c1ccc(Br)cc1 | 3.7
25 | COC(=O)c1cnc(NNS(=O)(=O)c2ccc(C(F)(F)F)cc2)nc1C(F)(F)F | -0.993
26 | CCCOc1ccc(/C=N/NC(=O)CN2CCCCC2)cc1 | -49.7
27 | Oc1ccc(/C=N/Nc2cc(N3CCOCC3)nc(N3CCOCC3)n2)cc1 | -3.15
28 | Cc1cccc(C(=O)Nc2ccc(C(=O)/C=C/c3ccncc3)cc2)c1 | -20
29 | CCCc1nc(N)c(C#N)c(-c2cccnc2)c1CC | -13.7
30 | CCc1ccc(NC(=O)C(=O)NCC2CCCO2)cc1 (stereo not drawn) | 10
31 | Cc1ccc(N/N=C2\CCS(=O)(=O)c3sccc32)cc1 | 28.4
32 | COC(=O)CC(c1ccc(OC)c(OC)c1)c1ccc(OC)c(OC)c1 | 11.5
33 | COC(=O)c1ccccc1NC(=O)N1C[C@@H]2C[C@@H](C1)c1cccc(=O)n1C2 | -12.4
34 | O=C(COc1cc2oc(=O)c3c(c2cc1Cl)CCCC3)NCc1cccnc1 | -10
35 | COCCCNc1oc(-c2ccccc2OC)nc1C#N | -11.4
36 | Cc1ccc(-c2nn(-c3ccccc3)cc2CC(=S)N2CCOCC2)cc1 | 16.4
37 | Cc1c(-c2cccs2)[n+](=O)c2c(n1[O-])CCC2 | -7.74
38 | O=C(c1cc(N2C(=O)C3C4CCC(C4)C3C2=O)ccc1Cl)N1CCN(c2ccc(F)cc2)CC1 (stereo not drawn) | -42.4
39 | COc1cccc(C(=O)NN2CC(O)=C(c3nc(C)cs3)C2=N)c1 | 7.17
40 | O=C(NCCc1ccc(Cl)cc1)C1CCCN(S(=O)(=O)N2CCCCCC2)C1 (stereo not drawn) | -18.7
41 | CCc1ccc(OCC(=O)Nc2ccc(N3CCN(S(C)(=O)=O)CC3)cc2)cc1 | 24.3
42 | CCOC(=O)c1c(NC(=O)CN2C(=O)C(=O)N(C(C)C)C2=O)sc(C)c1CC | -8.82
43 | Cc1ccc2c(CN3CC(C)CC(C)C3)cc(=O)oc2c1C (stereo not drawn) | -6.96
44 | Cc1cc(C)c(NS(=O)(=O)c2cccc3cccnc23)c(C)c1 | -2.75

Row | Structure (SMILES) | hERG current change (%, negative = inhibition) at 10uM [%]
45 | Cc1cc(S(=O)(=O)ON2C(=O)c3ccccc3C2=O)ccc1F | 15.7
46 | CNC(=O)c1ccccc1NC(=O)c1c(O)c2c([nH]c1=O)CCCC2 | -5.31
47 | Cc1ccc(C(C)(O)CS(=O)(=O)Cc2ccccc2Cl)cc1 (stereo not drawn) | 11.2
48 | CC1CCCCN1S(=O)(=O)c1ccc(NC(=O)c2cccc(-n3cnnn3)c2)cc1 (stereo not drawn) | -18.4
49 | O=C(c1cc2c(s1)-c1ccccc1OC2)N1CCN(c2ccccc2)CC1 | 8.08
50 | Cc1ccc(C(=O)NCC(=O)OC(C)C(=O)Nc2ccc(N3CCOCC3)cc2)s1 (stereo not drawn) | -5.66
51 | CCCCNC(=O)N1CCN(c2ccccc2OCC)CC1 | -0.115
52 | CC(C)=CCCC1=CCC2C(=O)NNC(=O)C2C1 (stereo not drawn) | 9.53
53 | COC(=O)c1nn(C23CC4CC(CC(C4)C2)C3)c2c1C(=O)N(c1ccc(F)cc1)C2=O | 2.61
54 | Cc1ccc(C)c(N(CC(=O)NC(C)(C)C)C(=O)CNC(=O)c2cccs2)c1 | 9.19
55 | Cc1ccc(NC(=O)c2c3c(nc4ccccc24)CCC3)cc1 | 2.86
56 | CC(C)(C)c1nc(SCC(=O)NCc2ccco2)c2ccccc2n1 | -15.7
57 | Cc1ccc(C)c(NC(=S)N(CCc2nc3cc(C)c(C)cc3[nH]2)Cc2cccnc2)c1 | 18
58 | CCN(CC)C(=O)CSc1nnc(-c2ccccn2)n1-c1ccccc1OC | 12.8
59 | N#Cc1cc(N)ccc1Sc1ccccc1 | 3.91
60 | Cc1ccc(-c2csc(NC(=O)CSc3nc4ccccc4c(=O)n3CCCN(C)C)n2)cc1 | -35.2
61 | c1ccc2[nH]c(NN=C3CCCCCC3)nc2c1 | -2.85
62 | O=C(Cc1ccc(F)cc1)N/N=C/c1ccccn1 | 3.81
63 | COc1ccc(NC(=O)NNC(=O)c2ccc(-c3ccccc3)cc2)c(OC)c1 | -8.29
64 | CC(C)(C)NC(=O)COC(=O)c1cc(Br)ccc1Cl | 24.3
65 | CCC1CCCCN1Cc1ccc(OC)c(OC)c1 (stereo not drawn) | -33.1
66 | COc1ccc(S(=O)(=O)N2CCOCC2)cc1NC(=O)Cc1c(Cl)cccc1Cl | 17.4

Row | Structure (SMILES) | hERG current change (%, negative = inhibition) at 10uM [%]
67 | Cc1cc(NC(=O)COc2ccccc2C)ccc1NC(=O)c1cccs1 | 0.541
68 | Cc1cc(OC(=O)N2CCCCC2)cc(C)c1Cl | -18.4
69 | CCN(CC)c1ncnc2sc(C(=O)N3CCN(c4ccc(OC)cc4)CC3)c(C)c12 | -41.5
70 | CC(C)OCCCNC(=O)c1cn(C)c2ccc(S(=O)(=O)N(C)C3CCCCC3)cc2c1=O | -22
71 | O=C(NC(Cc1ccccc1)C(=O)O)NC12CC3CC(CC(C3)C1)C2 (stereo not drawn) | 18.5
72 | CC(C)c1c(C(=O)N/N=C/c2ccc(Cl)cc2Cl)nnn1-c1nonc1N | 20.9
73 | NS(=O)(=O)c1ccc(CCNC(=O)C2CCC(Cn3c(=S)[nH]c4ccccc4c3=O)CC2)cc1 (stereo not drawn) | 11.7
74 | COc1cc(CC(=O)OCC(=O)Nc2cccc([N+](=O)[O-])c2)cc(OC)c1OC | -35.7
75 | COc1ccccc1N1CCN(C(=O)c2cc(C)on2)CC1 | 6.46
76 | CCC1CCCCN1C(=O)c1ccc(OC2CCN(C(=O)C3CC3)CC2)cc1 (stereo not drawn) | 18.3
77 | O=[N+]([O-])c1cc(S(=O)(=O)C(F)(F)F)ccc1Sc1nc2ccccc2s1 | 15.9
78 | COc1cc(C(=O)Nc2nc3ccccc3[nH]2)cc(OC)c1OC | -19.2
79 | CCc1cccc(C)c1NC(=O)C1CCN(c2nn3c(=O)cc(C)nc3s2)CC1 | 2.53
80 | Cc1nnc(SCC(=O)c2cc(C)n(-c3ccc4c(c3)OCO4)c2C)s1 | -2.46
81 | Cl.Clc1ccc(CSc2nnc([C@@H]3CCCN3)o2)cc1 | -3.36
82 | C=CCNC(=O)c1ccc(-c2nc(-c3ccc(Cl)c(Cl)c3)cs2)cc1 | -3.24
83 | CCOc1ccc(S(=O)(=O)N2CCOCC2)cc1NS(=O)(=O)c1ccc(OC)c([N+](=O)[O-])c1 | -41.7
84 | O=C(NCc1ccccc1)c1c(Cl)nc(Cl)c(Cl)c1Cl | 31.5
85 | CCOC(=O)c1cc(C#N)c(Nc2ccccc2OC)nc1C(F)(F)F | 14.4
86 | Cc1ccc(CC(=O)NCCc2ccc(S(N)(=O)=O)cc2)cc1 | 5.87
87 | O=C(OCc1cccc([N+](=O)[O-])c1)c1cnccn1 | -2.76
